# Measured values reported in PubChem BioAssay AID686979 (National Center for Advancing Translational Sciences (NCATS), 2013).
# Out of some 420,000 compounds screened, about 50,000 (12%) were called active. This list was built around the results that the source calls inconclusive (neither active nor inactive); the mix of calls is not that of the screen. Calls come from the whole dose curve; as a rule, active = well fitted inhibition curve with a large enough effect; inconclusive = small, poorly fitted or top-dose-only effect; inactive = flat fitted curve, though single readings scatter. No potency is given beside an inconclusive call; the fits are too rough.
# Assay: qHTS for Inhibitors of human tyrosyl-DNA phosphodiesterase 1 (TDP1): qHTS in cells in presence of CPT; note: nearly all actives have a fitted effect of over 55% in size
# Settings: chicken DT40 Tdp1-/-;hTDP1 cells + 20 nM CPT, ATP luminescence, 48 h; activity change, negative = growth inhibition: at 46.2 µM (top of the series) unless noted
# In short: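 Chicken DT40 Tdp1-/- cells complemented with human TDP1, 400 cells/well, exposed to compounds plus 20 nM camptothecin for at least 48 h at 37 C; viability read as ATP content by CellTiter-Glo luminescence.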
# % is set by controls: 0 for no effect and ±100 for the full control effect; potency is the fitted concentration of half-maximal effect; tags give direction and shape of the fitted curve.
Compound,"activity change, negative = growth inhibition",Potency
COc1ccc(NC(=O)C(=O)N/N=C(\C)CC(=O)Nc2cc(C)ccn2)c(OC)c1,inactive: 12.7%,–
CNc1ncnc2ccc(-c3cccc(NS(C)(=O)=O)c3)cc12,–,active: 11.6 µM
O=C(Nc1ccc2nc(SCC(=O)N3CCOCC3)sc2c1)c1cccc(Br)c1,–,active: 13 µM
C=CCn1c(-c2csc(-c3ccccc3)n2)n[nH]c1=S,inactive: -22.7%,–
CNc1cc[n+](C)c2ccccc12,inactive: -2.27%,–
Cc1ccc(NS(=O)(=O)c2ccc(-c3coc(C)n3)cc2)c(Cl)c1,–,"inconclusive [inhibitor, single point]"
CCc1nc(N2CCN(C(=O)c3ccccc3)CC2)c(C#N)c2c1COC(C)(C)C2,–,active: 18.4 µM
CC(C)(C)c1ccc(C(=O)NCC(c2cccnc2)N2CCc3ccccc3C2)cc1 (stereo unspecified),–,active: 2.31 µM
O=C(O)/C=C/C(=O)Nc1ccc(O)cc1,inactive: -3.93%,–
O=[N+]([O-])c1cc(-c2cnc3ccccc3n2)ccc1Oc1ccc(Br)cc1,–,"inconclusive [inhibitor, single point]"
CCOc1cc(CNCCc2ccc(S(N)(=O)=O)cc2)ccc1OCC(=O)NC(C)(C)C,–,"inconclusive [inhibitor, single point]"
Cc1cccc(-n2ncc3c2CCCC3NC(=O)CN2CCOC2=O)c1C (stereo unspecified),inactive: -1.05%,–
COc1cccc(CN2CCC(C(=O)N3CCN(c4ccccc4F)CC3)CC2)c1,inactive: -4.94%,–
COc1cc(/C=N/NC(=O)c2cn(-c3cccc(C)n3)cn2)ccc1O,inconclusive: -30.4% [inhibitor],–
Cc1[nH]nc(-c2ccc(OCc3cnn(-c4ccccc4)c3)cc2O)c1Oc1ccc(F)cc1,–,"inconclusive [inhibitor, partial curve]"
Cc1cc(C)c(C(O)c2ncc(-c3cccc(F)c3)[nH]2)c(C)c1 (stereo unspecified),–,"inconclusive [inhibitor, single point]"
Cc1ccc(CNS(=O)(=O)c2cc3c(cc2Cl)NC(=O)CO3)o1,–,"inconclusive [inhibitor, single point]"
c1ccc2c(c1)NC(c1ccncc1)n1c-2nc2ccccc21 (stereo unspecified),–,"inconclusive [inhibitor, partial curve]"
CC1CCC(C(=O)NC(C(=O)OCC(=O)c2ccc(Br)cc2)C(C)C)CC1 (stereo unspecified),–,"inconclusive [inhibitor, partial curve]"
CSC1=NC=C(C#N)C2=NC(c3c(Cl)cccc3Cl)NN12 (stereo unspecified),–,"inconclusive [inhibitor, single point]"
C=CCc1c(Cl)nc(C)nc1NCc1ccccc1,–,"inconclusive [inhibitor, single point]"
